# Test results: publication PMC4336329 (PLoS ONE, 2015)
# Out of some 310,000 compounds screened, about 2,200 (0.71%) showed an effect of 50% or more. Effects have a minus sign here. The list shows a part of the results.
# Molecular target: human ether-à-go-go-related gene (hERG) potassium channel (human, UniProt Q12809)
# Test: primary screen, population patch clamp on CHO cells stably expressing hERG
# Sequence of human ether-à-go-go-related gene (hERG) potassium channel (Q12809 whole entry, looked up): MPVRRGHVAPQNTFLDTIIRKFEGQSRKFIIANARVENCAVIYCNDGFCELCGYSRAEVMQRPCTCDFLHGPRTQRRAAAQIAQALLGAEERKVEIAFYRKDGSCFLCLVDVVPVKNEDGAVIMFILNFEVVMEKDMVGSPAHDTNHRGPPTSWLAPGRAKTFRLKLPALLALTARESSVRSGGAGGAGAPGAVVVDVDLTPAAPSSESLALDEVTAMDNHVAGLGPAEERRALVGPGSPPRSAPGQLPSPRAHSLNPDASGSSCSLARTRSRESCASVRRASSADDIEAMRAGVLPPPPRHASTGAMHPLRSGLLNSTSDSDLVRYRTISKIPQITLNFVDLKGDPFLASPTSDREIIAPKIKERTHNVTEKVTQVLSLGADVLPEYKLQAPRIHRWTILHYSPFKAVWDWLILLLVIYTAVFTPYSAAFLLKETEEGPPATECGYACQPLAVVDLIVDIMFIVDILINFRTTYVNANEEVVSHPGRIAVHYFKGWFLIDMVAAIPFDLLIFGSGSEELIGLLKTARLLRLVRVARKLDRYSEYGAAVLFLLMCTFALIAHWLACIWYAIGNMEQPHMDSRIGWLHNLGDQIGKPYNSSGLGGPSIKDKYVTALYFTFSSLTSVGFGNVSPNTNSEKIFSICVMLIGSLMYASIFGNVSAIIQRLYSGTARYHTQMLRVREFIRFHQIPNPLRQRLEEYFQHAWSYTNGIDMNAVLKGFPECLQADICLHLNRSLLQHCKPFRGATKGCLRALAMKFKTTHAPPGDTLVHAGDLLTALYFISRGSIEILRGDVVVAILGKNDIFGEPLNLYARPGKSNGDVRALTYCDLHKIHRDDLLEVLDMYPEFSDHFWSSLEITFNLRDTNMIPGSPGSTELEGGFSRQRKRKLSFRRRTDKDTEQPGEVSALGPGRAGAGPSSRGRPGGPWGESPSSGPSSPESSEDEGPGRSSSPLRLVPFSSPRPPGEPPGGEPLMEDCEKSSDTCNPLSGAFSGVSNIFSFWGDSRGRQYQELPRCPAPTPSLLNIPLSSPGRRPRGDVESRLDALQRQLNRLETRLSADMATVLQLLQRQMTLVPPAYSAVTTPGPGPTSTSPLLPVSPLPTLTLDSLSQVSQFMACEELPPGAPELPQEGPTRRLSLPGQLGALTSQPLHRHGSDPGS
row,SMILES,"hERG current change (%, negative = inhibition) at 1uM [%]"
1,COc1ccc(C(=O)C(OC(=O)c2ccccc2)c2ccccc2)cc1 (stereo not drawn),2.14
2,COc1ccc(NC(=O)C2CCCN(S(=O)(=O)c3ccc(Cl)cc3)C2)cc1OC (stereo not drawn),10.9
3,Cc1ccc(C(=O)NCCCNCCCNC(=O)c2ccc(C)nc2)cn1,-10.3
4,O=C(NCc1ccccn1)C(=O)NCC(c1ccco1)N1CCN(c2ccc(F)cc2)CC1 (stereo not drawn),-1.46
5,CCOc1ccccc1N1CCN(C(=O)c2csc(C)c2CC)CC1,6.98
6,CCCNC(=O)OC[C@H]1O[C@H](CCO/N=C/[C@@H](OC)[C@H](C)/C=C/CC(=O)OC)C=C[C@@H]1Oc1ccc(OC)cc1,10.1
7,Cc1ccc(N(CC(=O)N=Nc2c(O)[nH]c3ccccc23)S(C)(=O)=O)c(C)c1,-1.47
8,COC(=O)C(NC(=O)c1cccnc1Cl)C(C)C (stereo not drawn),7.42
9,Cc1ccc(S(=O)(=O)NC(C)(C)CSc2nnc(Nc3ccccc3)s2)cc1,4.5
10,Cc1noc(/C=C/c2ccco2)c1S(=O)(=O)N1CCC(C(=O)Nc2ccc(Cl)cn2)CC1,7.96
11,CC(C)[C@H](N)c1cn([C@@H](CC(N)=O)C(=O)N2CCNCC2)nn1,10.2
12,Cc1ccc(CCNC(=O)CCS(=O)(=O)c2cc3c(cc2C)NC(=O)CO3)cc1,4.09
13,COCCn1c(CCc2ccccc2)n[nH]c1=S,10.6
14,CCOC(=O)c1ccc(Nc2nc(N)c3cc(OC)c(OC)cc3n2)cc1,-0.23
15,O=C(NC1CCN(C(=O)Nc2ccc(F)cc2)CC1)c1ccccc1F,9.2
16,CCOCCCNC(=O)c1cc(Sc2ccc(C)cc2)nc2ccccc12,7.78
17,CCCn1c(NC(=O)CSCC(=O)Nc2cc(C)on2)nc2ccccc21,18.4
18,COc1ccc(-c2nnnn2-c2ccccc2OC)cc1,-8.21
19,CSc1nc(=S)n(-c2ccccc2)c(C)c1C(C)=O,10.3

row,SMILES,"hERG current change (%, negative = inhibition) at 1uM [%]"
1,Cc1noc(C)c1CSc1nnc2ccccn12,7.93
2,Cc1ccsc1-c1nc(CN2CCCC2c2ccc(F)cc2)c(C)o1 (stereo not drawn),11.6
3,CC(C)CN(C(=O)CN1CCN(c2cccc(Cl)c2)CC1)c1c(N)n(CC(C)C)c(=O)[nH]c1=O,13.7
4,Cc1cc(C)nc(N2C(=O)CC(Cc3ccccc3)C2=O)n1 (stereo not drawn),16.5
5,CCC(=O)N1CCc2cc(Br)cc(S(=O)(=O)CCC(=O)N(CC)CC)c21,9.07
6,Cc1nc(N2CCc3ccccc3C2)[nH]c(=O)c1Cc1ccccc1,10.5
7,CC1=NN(C(=O)c2cccnc2)C(O)(C(F)(F)F)C1 (stereo not drawn),5.67
8,CC(C)Oc1ccc(NC(=O)c2ccncc2)cc1,8.51
9,Nc1nc(NCC2CCCO2)nc(Nc2ccccc2F)c1[N+](=O)[O-] (stereo not drawn),16.4
10,CC1CCCCN1Cc1nc2c(c(=O)n(C)c(=O)n2C)n1Cc1c(F)cccc1Cl (stereo not drawn),11.4
11,O=[N+]([O-])c1ccc(Cl)c([N+](=O)[O-])c1,0.507
12,Cc1cc(S(=O)(=O)NCc2ccc(S(N)(=O)=O)cc2)c(C)s1,11
13,O=S(=O)(c1ccc2c(c1)OCCO2)N1CCC(n2nnc3cc(F)ccc32)CC1,-0.696
14,Cc1cccc(OCC(=O)NCC(=O)N/N=C/c2ccccc2)c1,10.4
15,Cc1cccc(Cn2c(=O)c3c(nc4n3CCN4Cc3ccco3)n(C)c2=O)c1,-5.64
16,COc1ccc(CCNC(=O)c2ccc(CS(=O)(=O)Cc3cccc(C)c3)o2)cc1OC,8.68
17,CN(C)c1nc(Oc2ccc(N)cc2)nc(N(C)C)n1,4.54
18,Cc1cc(N)nc(SCC(=O)N2C(C)CCCC2C)n1 (stereo not drawn),10.2
19,CCOc1ccc(C2=Nn3c(nnc3-c3ccc(OC)cc3)SC2)cc1,1.06

row,SMILES,"hERG current change (%, negative = inhibition) at 1uM [%]"
1,CCSc1ccc([C@@H]2[C@H]3C(=O)N(C)C(=O)[C@H]3[C@]3(C(=O)OC)CCCCN23)cc1.O=C(O)C(F)(F)F,14.2
2,CCSC1=C(C#N)C(CC(C)C)C2=C(CCCC2=O)N1 (stereo not drawn),15.5
3,O=C(Cn1ccc(=O)[nH]c1=O)Nc1ccc(C(=O)O)c(O)c1,16
4,Cc1nn(C)c(Cl)c1CN1CCC(Oc2ccc(C(=O)N3CCCC3)cc2)CC1,14.2
5,CC(C)Oc1ccccc1OCCCCn1cnc2ccccc2c1=O,-0.415
6,O=C(COc1ccccc1)NCC(c1ccco1)N1CCCCC1 (stereo not drawn),2.74
7,NC(=O)C1CCN(C(=O)COCc2cc(-c3ccc4c(c3)OCO4)on2)CC1,11.1
8,CC(CCc1ccccc1)NC(=O)COC(=O)C1CCC(C(C)(C)C)CC1 (stereo not drawn),17
9,CCOC(=O)Cc1cc(=O)n2[nH]c(C(C)(C)C)cc2n1,9.12
10,Cc1c(N)cccc1N,7.39
11,COc1ccc2cc(/C(C)=N/NC(=O)C3CC3)ccc2c1,3.73
12,O=S(=O)(c1ccccc1)N1CCN(C(=S)Nc2ccc(F)cc2)CC1,10.1
13,Cc1ccc(NC(=O)Cn2c(=O)n(CCCCC(=O)NCc3ccco3)c(=O)c3ccccc32)cc1,2.83
14,Cc1cc(C)c(C#N)c(SCc2[nH]nc3c2C(c2ccccc2)C(C#N)=C(N)O3)n1 (stereo not drawn),4.23
15,CC(O)Cn1ccccc1=N (stereo not drawn),8.16
16,Cc1ccc(C(c2nnnn2CCc2ccccc2)N2CCC(C)CC2)cc1.Cl (stereo not drawn),14.8
17,O=C(c1ccc2ccccc2c1)C1CCCN(C(=O)CN2C(=O)CSC2=O)C1 (stereo not drawn),-7.59
18,O=C(Cn1nnc2ccccc2c1=O)NCCc1ccccc1,-4.29
19,O=C(Nc1cccc(Br)c1)c1cc(=O)c2ccccc2o1,18.6
